# According to PubChem BioAssay (NCATS):
# This list was built around the results that the source calls inconclusive (neither active nor inactive); the mix of calls is not that of the screen. Potencies of inconclusive entries are doubtful fits and often do not repeat. Activity calls are given as the source filed them. The call rests on the fitted dose curve; in most records, active means well fitted cell-killing curve with a large enough effect; inconclusive means small, poorly fitted or top-dose-only effect, or effect the other way; inactive means no such curve, though single readings can be large or run the other way.
# Experiment: Viability qHTS for spleen associated tyrosine kinase inhibitor (SYKi) naive MV4-11 cells (AID 1963823); further: nearly all actives have a fitted effect of over 40% in size
# Conditions: MV4-11 AML viability, CellTiter-Glo luminescence, 72 h; viability (% of control): at 45 µM (top of the series)
# Method in brief: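 CellTiter-Glo luminescence, 10 min room-temperature incubation, gave viability. Cells: naive MV4-11 (500/well), treated 72 hr at 37 C, 5% CO2.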
# Potency means the concentration at half of the fitted maximal effect; tags describe the fitted curve by direction and shape.
row,Compound,Potency
1,NC(=O)c1nc(Nc2ccccc2)sc1NC(=O)C1CCCCC1,"inconclusive: 7.31 µM [cytotoxic, partial curve, poor fit]"
2,CC1CCC(=O)CC(O)C(O)CC(=O)O1 (stereo not given),"inconclusive: 20.6 µM [cytotoxic, partial curve]"
3,CC1CCC2(O1)C(C)(C)CC(O[C@@H]1O[C@H](CO[C@@H]3OC[C@](O)(CO)[C@H]3O)[C@@H](O)[C@H](O)[C@H]1O)CC2(C)O (stereo not given in full),inactive
4,CCOc1ccc(CCNC(=O)c2cc3sc(Cl)cc3n2C)cc1OCC,inactive
5,O=C(NCCCN1CCC2(CC1)OCc1ccccc12)[C@H]1CCCN1Cc1ccccc1,"inconclusive: 14.6 µM [cytotoxic, partial curve]"
6,O=S(=O)(Nc1ccccn1)c1ccc(N=Cc2c(O)[nH]c3ccc4ncsc4c23)cc1,active: 0.0944 µM
7,CON(C)C(=O)[C@H](O)[C@H](Cc1ccccc1)NC(=O)c1cc2cc(Cl)ccc2[nH]1,"inconclusive: 16.4 µM [cytotoxic, partial curve]"
8,COc1cc(/C=C/C(=O)OC2CC3CCC2(C)C3(C)C)ccc1O (stereo not given),"inconclusive: 20.2 µM [cytotoxic, single point]"
9,CCN(CC)CCCCNc1ncc2cc(-c3c(Cl)cccc3Cl)c(NC(=O)NC(C)(C)C)nc2n1,active: 0.517 µM
10,O=C(COc1ccc(Cl)cc1)NC1CCC(NC(=O)COc2ccc(Cl)cc2)CC1 (stereo not given),inactive
11,OC[C@@]1(O)CO[C@H](OC[C@H]2O[C@@H](OC(CCCCc3ccc(O)cc3)CCc3ccc(O)cc3)[C@H](O)[C@@H](O)[C@@H]2O)[C@@H]1O (stereo not given in full),"inconclusive: 0.0015 µM [rising, full curve, poor fit]"
12,CC(C)(C)c1cc(CN2CCN(CC(O)c3ccc(Cl)cc3)CC2)cc(C(C)(C)C)c1O (stereo not given),"inconclusive: 23.1 µM [cytotoxic, single point]"
13,CC1(C)CC[C@]2(C(=O)O)CC[C@]3(C)C(=CCC4[C@@]5(C)CC[C@H](O[C@@H]6O[C@H](C(=O)O)[C@@H](O[C@@H]7OC[C@@H](O)[C@H](O)[C@H]7O)[C@H](O)[C@H]6O)C(C)(C)C5CC[C@]43C)C2C1O (stereo not given in full),inactive
14,CC(C)(C)c1nnc(NS(=O)(=O)c2ccc(N)cc2)s1,inactive
15,CC1(C)CC[C@]2(C(=O)O[C@@H]3O[C@H](CO)[C@@H](O)[C@H](O)[C@H]3O)[C@H](O)C[C@]3(C)C(=CCC4[C@@]5(C)CC[C@H](O[C@@H]6OC[C@@H](O)[C@H](O)[C@H]6O)[C@@](C)(C(=O)O)C5CC[C@]43C)[C@@H]2C1 (stereo not given in full),inactive
16,CC(/C=C/C1(O)C2(C)COC1(C)CC(=O)C2)O[C@@H]1O[C@H](CO)[C@@H](O)[C@H](O)[C@H]1O (stereo not given in full),inactive
17,O=C(O)c1cn(C2CC2)c2cc(Cl)c(F)cc2c1=O,"inconclusive: 0.0067 µM [rising, full curve, poor fit]"
18,C=C1/C(=C/C=C2\CCC[C@]3(C)[C@@H]([C@H](C)/C=C/[C@@H](C)C(C)C)CC[C@@H]23)C[C@@H](O)C[C@@H]1O,"inconclusive: 1.84 µM [cytotoxic, full curve]"
19,C=C1C[C@]23C[C@H]1[C@@H](O)C[C@H]2[C@@]12C=C[C@H](O)[C@@](C)(C(=O)O1)[C@H]2[C@@H]3C(=O)O,inactive
20,C=CC1(C)CC(O)C(C(=C)C(=O)OC)C(O)C1C(=C)CO (stereo not given),"inconclusive: 25.9 µM [cytotoxic, single point]"
21,CC(=O)/C=C/C1(O)C(C)=CC(=O)CC1(C)C (stereo not given),inactive
22,C/C=C(/C)C(=O)OC1C2OC2C2(CO2)C2C3OC(=O)C(C)C3CCC12C (stereo not given),inactive

# Experiment: Viability qHTS for spleen associated tyrosine kinase inhibitor (SYKi) drug resistant MV4-11 cells (AID 1963824); further: nearly all actives have a fitted effect of over 35% in size
# Conditions: SYKi-resistant MV4-11 viability, CellTiter-Glo, 72 h; series mostly up to 45 µM
# Method in brief: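 CellTiter-Glo luminescence, read 10 min after reagent addition, reports viability after a 72 hr compound exposure. Cells are an MV4-11 line made resistant to SYK inhibition, seeded at 500 per well onto compound-containing plates.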
Compound,Potency,"viability, % of control"
COc1cc(C(=O)N2CCCCCCC2)cc(OC)c1OC,inactive,–
CC(C(=O)Nc1cc(C#N)ccc1CCCC(=O)O)c1ccc(F)c2ccccc12 (stereo not given),"inconclusive: 6.51 µM [cytotoxic, partial curve, poor fit]",–
COc1ncc2cc(C(=O)Nc3cc(C(=O)NCc4cccc(Cl)c4)ccc3Cl)c(=O)[nH]c2n1,"inconclusive: 3.66 µM [cytotoxic, full curve]",–
CC(=O)NC(Cc1ccccc1)C(=O)O (stereo not given),inactive,–
C=C1/C(=C/C=C2\CCC[C@@]3(C)C2CCC3[C@H](C)/C=C/[C@@H](O)C2CC2)C[C@@H](O)C[C@@H]1O (stereo not given in full),"inconclusive: 11.6 µM [cytotoxic, partial curve]",–
CCC(C)/C=C(C)/C=C/C1=CC2=CC(=O)C(C)(O)C(OC(C)=O)C2CO1 (stereo not given),"inconclusive: 11.4 µM [cytotoxic, partial curve]",–
CC(=O)OC1CCC2(C)C(CCC3(C)C2CC=C2C4CC(C)(C)CCC4(C)CCC23C)C1(C)C(=O)O (stereo not given),"inconclusive: 8.93 µM [cytotoxic, partial curve, poor fit]",–
Cc1cccc(NC(=O)CN2CCC(c3ccccn3)CC2)c1,"inconclusive: 29.1 µM [cytotoxic, single point]",–
Nc1c(I)cc(I)c(C(=O)N(CCC(=O)O)c2ccccc2)c1I,inactive,–
O=C(Nc1cccnc1)c1cc(-c2ccnc(F)c2)ccc1OCc1ccccc1,"inconclusive: 8.2 µM [cytotoxic, partial curve]",–
CC1=C(/C=C/C(C)=C\C=C\C(C)=C/C(=O)O)C(C)(C)CCC1,"inconclusive: 1.84 µM [cytotoxic, partial curve]",–
OC[C@H]1O[C@@H](Oc2cc(O)cc(-c3cc4ccc(O)cc4o3)c2)[C@H](O)[C@@H](O)[C@@H]1O,active: 4.47 µM,–
C[C@@H]1O[C@@H](O[C@@H]2CO[C@@H](O[C@H]3CC[C@@]4(C)C(CC[C@]5(C)C4CC=C4[C@@H]6CC(C)(C)CC[C@]6(C(=O)O[C@@H]6O[C@H](CO)[C@@H](O)[C@H](O)[C@H]6O)CC[C@]45C)[C@]3(C)CO)[C@H](O)[C@H]2O[C@@H]2O[C@H](CO)[C@@H](O)[C@H](O)[C@H]2O)[C@H](O)[C@H](O)[C@H]1O (stereo not given in full),–,inactive: 62.6% [at 9.25 µM]
CC12CCC3c4ccc(O)cc4CCC3C1CCC2OC1OC(C(=O)O)C(O)C(O)C1O (stereo not given),"inconclusive: 14.6 µM [cytotoxic, single point]",–
Cc1ccc(Cl)cc1NC(=O)c1nc[nH]c1C(=O)Nc1nc2ccccc2[nH]1,"inconclusive: 5.17 µM [cytotoxic, partial curve, poor fit]",–
CC(C)CC(=O)OC[C@@]1(O)C[C@@]23CC[C@H]4[C@@](C)(CCC[C@@]4(C)C(=O)O)[C@@H]2CC[C@@H]1C3,"inconclusive: 3.17 µM [cytotoxic, partial curve, poor fit]",–
OC[C@H]1O[C@@H](Oc2ccc(O)cc2)[C@H](O)[C@@H](O)[C@@H]1O,"inconclusive: 0.0188 µM [rising, full curve, poor fit]",–

Compound,Potency,"viability, % of control"
C[C@]1(C(=O)N(CCCC(=O)O)Cc2cccc(Cl)c2)CCN1C(=O)c1csc2ccccc12,"inconclusive: 13.2 µM [cytotoxic, partial curve, poor fit]",–
NC(=O)c1nc(Nc2ccccc2)sc1NC(=O)C1CCCCC1,"inconclusive: 7.31 µM [cytotoxic, partial curve]",–
CC1CCC(=O)CC(O)C(O)CC(=O)O1 (stereo not given),"inconclusive: 14.6 µM [cytotoxic, partial curve]",–
CC1CCC2(O1)C(C)(C)CC(O[C@@H]1O[C@H](CO[C@@H]3OC[C@](O)(CO)[C@H]3O)[C@@H](O)[C@H](O)[C@H]1O)CC2(C)O (stereo not given in full),"inconclusive: 10 µM [cytotoxic, single point]",–
CCOc1ccc(CCNC(=O)c2cc3sc(Cl)cc3n2C)cc1OCC,active: 1.64 µM,–
O=C(NCCCN1CCC2(CC1)OCc1ccccc12)[C@H]1CCCN1Cc1ccccc1,"inconclusive: 23.1 µM [cytotoxic, partial curve]",–
O=S(=O)(Nc1ccccn1)c1ccc(N=Cc2c(O)[nH]c3ccc4ncsc4c23)cc1,active: 0.299 µM,–
CON(C)C(=O)[C@H](O)[C@H](Cc1ccccc1)NC(=O)c1cc2cc(Cl)ccc2[nH]1,"inconclusive: 16.4 µM [cytotoxic, partial curve]",–
COc1cc(/C=C/C(=O)OC2CC3CCC2(C)C3(C)C)ccc1O (stereo not given),"inconclusive: 12.8 µM [cytotoxic, single point]",–
CCN(CC)CCCCNc1ncc2cc(-c3c(Cl)cccc3Cl)c(NC(=O)NC(C)(C)C)nc2n1,active: 0.58 µM,–
O=C(COc1ccc(Cl)cc1)NC1CCC(NC(=O)COc2ccc(Cl)cc2)CC1 (stereo not given),inactive,–
OC[C@@]1(O)CO[C@H](OC[C@H]2O[C@@H](OC(CCCCc3ccc(O)cc3)CCc3ccc(O)cc3)[C@H](O)[C@@H](O)[C@@H]2O)[C@@H]1O (stereo not given in full),inactive,–
CC(C)(C)c1cc(CN2CCN(CC(O)c3ccc(Cl)cc3)CC2)cc(C(C)(C)C)c1O (stereo not given),"inconclusive: 16.4 µM [cytotoxic, single point]",–
CC1(C)CC[C@]2(C(=O)O)CC[C@]3(C)C(=CCC4[C@@]5(C)CC[C@H](O[C@@H]6O[C@H](C(=O)O)[C@@H](O[C@@H]7OC[C@@H](O)[C@H](O)[C@H]7O)[C@H](O)[C@H]6O)C(C)(C)C5CC[C@]43C)C2C1O (stereo not given in full),inactive,–
CC(C)(C)c1nnc(NS(=O)(=O)c2ccc(N)cc2)s1,inactive,–
CC1(C)CC[C@]2(C(=O)O[C@@H]3O[C@H](CO)[C@@H](O)[C@H](O)[C@H]3O)[C@H](O)C[C@]3(C)C(=CCC4[C@@]5(C)CC[C@H](O[C@@H]6OC[C@@H](O)[C@H](O)[C@H]6O)[C@@](C)(C(=O)O)C5CC[C@]43C)[C@@H]2C1 (stereo not given in full),"inconclusive: 4.32 µM [rising, partial curve, poor fit]",–
